# PubChem BioAssay AID686978 (National Center for Advancing Translational Sciences (NCATS), 2013)
# Among all 420,000 compounds or so, about 64,000 (15%) were called active. This list was built around the results that the source calls inconclusive (neither active nor inactive); the mix of calls is not that of the screen. Calls come from the whole dose curve; as a rule, active = well fitted inhibition curve with a large enough effect; inconclusive = small, poorly fitted or top-dose-only effect; inactive = flat fitted curve, though single readings scatter. Potencies of inconclusive entries are left out as doubtful fits.
# Test: qHTS for Inhibitors of human tyrosyl-DNA phosphodiesterase 1 (TDP1): qHTS in cells in absence of CPT; note: nearly all actives have a fitted effect of over 55% in size
# Conditions: DT40 Tdp1-/- hTDP1 cells, no CPT, ATP luminescence, 48 h; activity change, negative = growth inhibition: at 46.2 µM (top of the series) unless noted
# Outline: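 Chicken DT40 Tdp1-/- cells stably complemented with human TDP1 were seeded at 400 cells/well with DMSO in place of 20 nM camptothecin. After compound pinning, cells grew at least 48 hr at 37 °C; viability read by CellTiter-Glo luminescence.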
# % is set by controls: 0 for no effect and ±100 for the full control effect; potency is the fitted concentration of half-maximal effect; tags give direction and shape of the fitted curve.
SMILES,Potency,"activity change, negative = growth inhibition"
CCCN(Cc1cccs1)C(=O)Nc1cc(OC)ccc1OC,"inconclusive [inhibitor, single point]",
Cc1ccc(N(C)C(=O)c2cc(S(=O)(=O)N3CCOCC3)cn2C)cc1,,inactive: -15.8%
CCOC(=O)Cc1csc(NC(=O)/C=C/c2ccc(Cl)cc2)n1,"inconclusive [inhibitor, partial curve]",
COc1cccc(Nc2ncc3nc(C)c(=O)n(-c4ccccc4)c3n2)c1,"inconclusive [inhibitor, single point]",
CCCc1ccc2oc(C(=O)N3CCN(c4cnccn4)CC3)c(C)c2c1,,inactive: -25.6%
COc1ccc(Nc2nccc(-c3cccc(N)c3)n2)cc1,"inconclusive [inhibitor, single point]",
CCN(CCNc1ccc(Cl)cc1[N+](=O)[O-])C(=O)c1cc([N+](=O)[O-])c(N(C)C)cc1OC,"inconclusive [inhibitor, single point]",
O=C(Nc1ccc2c(c1)OCCO2)C1CCCN1C(=O)Nc1ccc(F)cc1 (stereo not given),,inactive: 13.9%
COc1ccc(C2=NNC(c3cccnc3)=Nc3ccccc32)cc1,"inconclusive [inhibitor, single point]",
COc1ccc(C(=O)NNC(=O)C(=O)Nc2cccc3ccccc23)cc1,"inconclusive [inhibitor, single point]",
O=C(NC1CCCCC1)c1cc(-c2ccccn2)nc2ccccc12,"inconclusive [inhibitor, single point]",
CNC(=O)N1CCC(C(=O)c2c(C)c(C)c(C)c(C)c2C)CC1,"inconclusive [inhibitor, single point]",
CCOC(=O)N1CCC(N2C(=O)c3ccccc3C2Nc2ccc(S(=O)(=O)N(CC)CC)cc2)CC1 (stereo not given),"inconclusive [inhibitor, single point]",
CCC(C(=O)NCCc1ccc(S(N)(=O)=O)cc1)c1ccccc1 (stereo not given),,inactive: -13.7%
CCCOc1ccc(OCCOCCN2CCc3ccccc3C2)cc1,"inconclusive [inhibitor, single point]",
O=C(Nc1ccccc1F)c1cc(S(=O)(=O)N2CCCCC2)cs1,"inconclusive [inhibitor, full curve]",
O=C(c1ccc2c(c1)OCO2)N1CCN(c2ncccn2)CC1,,inconclusive: -33.2% [inhibitor]
Cn1ncc2c(Nc3cc(Cl)cc(Cl)c3)ncnc21,"inconclusive [inhibitor, single point]",
CCOC(=O)N1CCC(NC(=O)c2cc3sccc3n2CC)CC1,"inconclusive [inhibitor, single point]",
CN1CCN(C(=O)C2=C[C@H](C3CCCCC3)C[C@H](OCc3ccc(CO)cc3)O2)CC1,"inconclusive [inhibitor, single point]",
O=C(c1cccc2ccccc12)C1CCCN(C(=O)c2ccc(N3CCOCC3)cc2)C1 (stereo not given),active: 23.1 µM,
COc1ccccc1-c1noc(CCCC(=O)Nc2cc(C)ccc2C)n1,"inconclusive [inhibitor, single point]",
Cc1ccc(/C=C(\C#N)c2nn(-c3ccccc3)c(N)c2C#N)cc1,active: 14.6 µM,

SMILES,Potency,"activity change, negative = growth inhibition"
CN(C)c1ccc(/C=C/c2nccc3ccccc23)cc1,"inconclusive [inhibitor, single point]",
CC(C)c1ccc2c(c1)C(c1ccc(N3CCOCC3)cc1)=NNC(c1cccs1)=N2,"inconclusive [inhibitor, single point]",
CCOC(=O)[C@]12CCC=C1N(Cc1ccccc1)C(=O)[C@H](CC(=O)NCCCCc1ccccc1)C2,active: 20.6 µM,
C=CCn1c(SCC(=O)Nc2cccc(S(N)(=O)=O)c2)nnc1C1CCCCC1,,inactive: -1.6%
CC(C)c1nc(SCC(=O)Nc2ccc3c(c2)OCCO3)c2c(=O)n(C)c(=O)n(C)c2n1,"inconclusive [inhibitor, single point]",
O=C(Nc1ccc(C(=O)N2CCCCC2)cc1)C1CC1,,inactive: -15.6%
CC(=O)n1cc(N(C(=O)CCl)c2ccccc2)c2ccccc21,active: 0.58 µM,
Cc1ccc(S(=O)(=O)N/N=C/c2ccc3nccnc3c2)cc1,"inconclusive [inhibitor, single point]",
Cc1ccc(CNC(=O)CC(C)S(=O)(=O)c2ccc3c(c2)NC(=O)CS3)o1 (stereo not given),"inconclusive [inhibitor, single point]",
COc1ccccc1N1CCN(C(=O)c2ccc(Cl)c(S(=O)(=O)NCc3ccco3)c2)CC1,active: 5.01 µM,
O=C(c1cccn2c(=O)c3ccccc3nc12)N1CCN(c2ccccn2)CC1,,inconclusive: -30.3% [inhibitor]
OCCCn1c(C2CCCN2c2nc(-c3ccc(Cl)cc3)cs2)nc2cc(Cl)c(N3CCCCC3)cc21 (stereo not given),"inconclusive [inhibitor, single point]",
CC(=O)c1ccc(NC(=O)CCOc2ccccc2)cc1,"inconclusive [inhibitor, single point]",
COc1ccc(N(CC(=O)NCc2ccco2)C(=O)CCC(=O)Nc2nccs2)cc1,,inactive: -7.92%
N#CC1=C2SCN(Cc3ccco3)CN2C(=O)CC1c1cccc2ccccc12 (stereo not given),"inconclusive [inhibitor, single point]",
Cc1occc1C(=O)Nc1cccc(-c2nc(CNC(=O)c3cc(-c4ccccc4)n[nH]3)c(C)o2)c1,"inconclusive [inhibitor, partial curve]",
COc1ccc(NC(=O)CSc2nnc(-c3ccccc3)n2Cc2ccco2)c(OC)c1,,inconclusive: -32.5% [inhibitor]
CN(C)S(=O)(=O)c1ccc(N2CCCC2)c(C(=O)NC2CCCCC2)c1,,inactive: -11.9%
Fc1ccc(NC(=S)N2CCOCC2)cc1Cl,,inactive: 11.6%
COc1ccc2ccccc2c1/C=N\NC(=O)c1ccc(C)s1,,inconclusive: -35.9% [inhibitor]
CNC(=S)N/N=C(\C)c1ccc(Cl)c(Cl)c1,active: 5.17 µM,
C/C(=N/NC(=O)c1ccc(C)nc1)c1ccc2c(c1)CCCC2,active: 23.1 µM,
